Read counts are not given, so values of variants with three or more changes are uncertain.
B1: LINE1-mini (parent)
chain: GGCAGAGCUCAACACAGCGUGGCAAAGUGGCUGUGGCUAGACUGCC

Variants of: B1
Assay: self-cleavage, relative activity (ratio to wild type); higher = more cleavage; in vitro, sequencing; the parent is a self-cleaving ribozyme

| Variant | self-cleavage |
| --- | --- |
| GGCAGAGCUCAAUACAGCGUGGCAAAGUGGAUGUGGAUAGACUGCC [C13U C31A C37A] | 0.04 |
| UGCAGAACUCAACAAAGCCUGGCAAAGUGGCUAUGGCUAGACUGCC [G1U G7A C15A G19C G33A] | 0.05 |
| GGCAGAGAUCAACACAGCGUGACAAGGUGGCUGUGGCCAGACUGCC [C8A G22A A26G U38C] | 0.12 |
| CUCAGAGCUCAACACAGCGUGGCAAAGUGGCGGUGGCUAGACUGCC [G1C G2U U32G] | 0.02 |
| GGCAAAGCUCAACACAACGUGGCAAAGUGGCUGUGGCUAUACUGCC [G5A G17A G40U] | 0.06 |
| GGCACAGCUCAACACAGCGUGUCAGAGUGGCUGUGGCUGGACUGUC [G5C G22U A25G A39G C45U] | 0.01 |
| GGCAGAGCUCAACACAGCGUAGCAAAGUGGCUUUGGCUAGACUGUC [G21A G33U C45U] | 0.07 |
| GGCAGAGAUCAACAGAGCGUGGCAAAGUGGCUGUGGCUAGACUCCC [C8A C15G G44C] | 0.17 |
| GGGAUAGCUCAAAACAGCGUGGAAAAGUGGCUGUGGGUAGACUGCC [C3G G5U C13A C23A C37G] | 0.02 |
| GGCAGAGCUCUAAACUGCGUGGCAAAGUGGAUGUGGCUAGACUGCC [A11U C13A A16U C31A] | 0.01 |
| GGCAGAGCUCUACACAGCGUUGCAAAGUGGCUGUGGCUAGACUUCA [A11U G21U G44U C46A] | 0 |
| GGCGGAGCUCAACACGGCGUGGCAAAGGGGCUGUGGCUAGGCUGGC [A4G A16G U28G A41G C45G] | 0.02 |
| GGCAGAGCUCGACACAGCGUGGCAAAGUGUCUGUGGCUAGACUGUC [A11G G30U C45U] | 0.02 |
| GGCAGAGGUCAACACAGCGCGGCACAGUAGCUGUGCCUAGACUGCC [C8G U20C A25C G29A G36C] | 0.22 |
| CGCAGAGCUCAUCACAGCGUGGCAAAGUGGCUGUAUCUUAACUGCC [G1C A12U G35A G36U A39U G40A] | 0.04 |
| GGCAGAGCUAAACACAGCGUGCCAAAGUGGCUGUGGCUAGACUCCC [C10A G22C G44C] | 0.02 |
| GGCAGGCCUAAAUUCGGCGUGGCAAAGUGGCUGUGGCUAGCCUGCC [A6G G7C C10A C13U A14U A16G A41C] | 0.01 |
| GGCAGAGCACAACACAGCGUGGCAAAGUGGGUGUGGCCAGACAGCA [U9A C31G U38C U43A C46A] | 0.23 |
| GGCAGAGGUCAUUACAGCGUGGCAAACUGGCUGUAGCUAGUCUGCA [C8G A12U C13U G27C G35A A41U C46A] | 0.01 |

| Variant | self-cleavage |
| --- | --- |
| GGAAGAGCUCAACACAGCGUGGCAAAGUGGCUGUGGCUAAACUAGC [C3A G40A G44A C45G] | 0.15 |
| GGCAGAGCUCAACACUGCGUGGCAAAGUCGUUGUGGUUAGACUUCC [A16U G29C C31U C37U G44U] | 0.04 |
| GGCAGAGCUCAACACAGCGUUGCAAUGUGGCUGUGGCUAGAGUGCC [G21U A26U C42G] | 0.07 |
| GGCAGAGCUCAUCACAACGUGGCAAACUGAUUGUGGCAAGACUGGC [A12U G17A G27C G30A C31U U38A C45G] | 0.03 |
| GGCAGAGUUCGUCACAGCGGGGCAAAGUGGCUGGGGAUAGACACCC [C8U A11G A12U U20G U34G C37A U43A G44C] | 0 |
| GGCAUAGGUCAAUACAGCGUGGCAAAGUGGCUGUUGCUAGACUGCC [G5U C8G C13U G35U] | 0.08 |
| GGCAGAGCUCCACACAGCGUGGCAUAGUGUCUGUGGCUAGUCGGCC [A11C A25U G30U A41U U43G] | 0 |
| GGCAGAGCUCAACACAUCGUGGCAAAGUGGAUGUGGCUAAACUGCC [G17U C31A G40A] | 0.07 |
| GGCAGAGCUCAACACACUCUGGCAAAGUGGCUGUGGCUAGACUGCC [G17C C18U G19C] | 0.36 |
| GGCAGAGCUCCACACAGCGUAGCAAAGUGGCUGUGGCUAGUCUGCC [A11C G21A A41U] | 0.05 |
| GGCAGAGCUCAACACAGCGAGCCAAAGUCGCUGUGGCUAGACUGCC [U20A G22C G29C] | 0.24 |
| GGCAGAGCUCUACACAGCGUGGCUACGUCGCUGUGGCUAGACUGCC [A11U A24U A26C G29C] | 0.13 |
| AGUAGAGUUAAACACAGAGUGGCAAAGUGGCUGUGGCUAGCCUGCC [G1A C3U C8U C10A C18A A41C] | 0.74 |
| GGCACAGCUCGACACAGCAUCGCAAAUUGGUUGUGGCGAGACUGCC [G5C A11G G19A G21C G27U C31U U38G] | 0 |
| GCCAGAGCUCAACACAGCGUGGCAAAGUGGAUGUGACUAGACUGCC [G2C C31A G36A] | 0.03 |
| GGCAGAGGUCAAGACAGUGUGGCAAAGUGGCUGUGGCUAGACUGCC [C8G C13G C18U] | 0.03 |
| CGCAGAGCUCAAAACAGCGUGGCAAAGUGGCUCUGGCUAGACUGCC [G1C C13A G33C] | 0.01 |
| GGCAAAGCUGGACACAGCGUGGCAAGGUAGCUGUGGAGAGACUGCC [G5A C10G A11G A26G G29A C37A U38G] | 0.01 |
| CGCAGAGCUCAACACGGCGUGGCAAAGUGUCUGCGGCUAGACUGCC [G1C A16G G30U U34C] | 0.02 |

| Variant | self-cleavage |
| --- | --- |
| GGCAGAGCACAAAACUGCGUGGCAAAGUAGCUGUGGCUAUACUGUC [U9A C13A A16U G29A G40U C45U] | 0.08 |
| GGCAUAGAACAACACAGCGUUGCAAAGUGGCCGUGGCUAGACUGCG [G5U C8A U9A G21U U32C C46G] | 0.02 |
| GGAAGAGCUCACCCCACCGUGGCAAAGUGGCUGUGGCUAGACUGCC [C3A A12C A14C G17C] | 0.03 |
| GACAGAUCUCAACACAGCGUGGCAAAGUGGCUCUGGCUAAACUGCC [G2A G7U G33C G40A] | 0.26 |
| GGCAGAGCUCAACACACCGUGGCAAAGUGGCUUUGGCUAAACGGCC [G17C G33U G40A U43G] | 0 |
| GGCAGAGAUCAACAUAGCGUAGCAAAGUGGCUGUGGCUAGACUGCC [C8A C15U G21A] | 0.3 |
| GGCAGUGCUCAACCCAGCGUGGCAAAGUUGCUGUGGAUAGACUGCC [A6U A14C G29U C37A] | 0.16 |
| GGCAGACCUCAACACAGCGUGGCAAAGUGGCUGUGGCUACACUGAC [G7C G40C C45A] | 0.07 |
| GGCAGAUCUCAACACAGCGUGGCAAAUUCGCUGUGGCUAGACUGCC [G7U G27U G29C] | 0.19 |
| GGCAUAGCUCAACACAGCAUGGCAAACUGGCUGUGGCUAGACUGCC [G5U G19A G27C] | 0.06 |
| GGCAGAGCUCAACACAACGUGGCUAAGGGGCUGUGGCUAGACUACC [G17A A24U U28G G44A] | 0.01 |
| GGCAGAGCUCUACACAGCGUGGCAAAGGGGCUGUGGCUAGACAGCC [A11U U28G U43A] | 0.02 |
| AGCAUAGCUCAACACAGCUUGGCAAAGUGGCUGAGGCUAGACUGCC [G1A G5U G19U U34A] | 0.03 |
| GGCAGAGCUCUACACAGCCUGGCAAAGUGCCUGUGGCUAGACUGCC [A11U G19C G30C] | 0.07 |
| GGCAGAGCUCAACGCAGCGAGGCAAAGUGUCUGUGGCUAGAUUGCC [A14G U20A G30U C42U] | 0.04 |
| GGCAGAGCUCACAACAGCAUGGCAAAGUGGCUGAUGCUAGACUGCC [A12C C13A G19A U34A G35U] | 0.03 |
| GGCAGAGCGCAGCACAUCGUGGCAAAGGGGCUGUGGCUAUACUGCC [U9G A12G G17U U28G G40U] | 0.03 |
| GACAGAGCUCAAUACAGCGUGGCAAAGUGGCUGUGGCUAGACAGCC [G2A C13U U43A] | 0.09 |

Reference: the RNAGym collection of RNA variant scans (doi:10.7554/elife.90254)
